Source: the supplement of paper PMC3334620
The full ranking holds about 33,000 sequences; the median of “E-score (-0.5 to 0.5)” is about -0.016, and the highest 2% start at about 0.32. Some of the results follow.

biological target: T1, Stp1 (UniProt B3LFK1); test: PBM E-score (8-mer binding enrichment) (E-score (-0.5 to 0.5)); higher = stronger / more preferred TF binding; most listed sequences are background and not binding sites; conditions: protein concentration: 200 nM; construct: GST-full length
T1 sequence: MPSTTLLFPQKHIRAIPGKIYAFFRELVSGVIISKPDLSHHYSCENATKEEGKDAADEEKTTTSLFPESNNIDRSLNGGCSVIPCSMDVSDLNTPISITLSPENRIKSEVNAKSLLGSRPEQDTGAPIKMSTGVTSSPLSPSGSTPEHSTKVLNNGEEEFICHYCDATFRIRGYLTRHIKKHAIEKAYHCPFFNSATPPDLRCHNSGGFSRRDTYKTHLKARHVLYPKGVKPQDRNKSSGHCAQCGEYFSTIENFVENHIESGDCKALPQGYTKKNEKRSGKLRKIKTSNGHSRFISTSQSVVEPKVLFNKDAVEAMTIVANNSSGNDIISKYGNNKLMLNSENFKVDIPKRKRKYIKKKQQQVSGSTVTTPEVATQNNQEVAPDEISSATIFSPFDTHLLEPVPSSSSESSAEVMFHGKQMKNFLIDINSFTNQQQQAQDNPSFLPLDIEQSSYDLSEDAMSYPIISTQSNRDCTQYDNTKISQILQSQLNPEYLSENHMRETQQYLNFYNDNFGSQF
Summary of the method: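 Universal all-10-mer Agilent arrays, fresh or stripped once, were converted to double-stranded form by primer extension. GST-tagged yeast transcription factors from PURExpress in vitro transcription/translation, full-length or DNA-binding domain only, were applied at about 100-200 nM and detected with fluorescent anti-GST. After masliner normalisation, the Universal PBM Analysis Suite scored each ungapped eight-base word together with its reverse complement by E-score.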

| Sequence | PBM E-score |
| --- | --- |
| CTACCAAG | -0.0321 |
| AAGGCCAG | -0.13 |
| AGCGTACT | -0.119 |
| ATATGTTG | 0.129 |
| CAACGAAG | -0.0658 |
| GAAGGGGC | -0.189 |
| TGAGAACA | 0.166 |
| CATCTTGG | -0.137 |
| CATCGGCA | 0.0516 |
| AGTGATAT | -0.0944 |
| CGAAGTAC | -0.0662 |
| ACACACAC | 0.0566 |
| CGAGAATA | 0.08 |
| GGATTACA | -0.214 |
| ATTAAAAG | 0.161 |
| ATAAAGAC | -0.124 |
| ACTTATAG | -0.0732 |
| AAGCGAGT | 0.0645 |
| ATCGCCAT | 0.193 |
| AAACGCGA | 0.117 |
| GTCGCGTA | 0.0619 |
| ATCCGCTC | -0.0544 |
| ATTGACGC | 0.208 |
| ACTTCGAA | 0.134 |

| Sequence | PBM E-score |
| --- | --- |
| GCGCGTTA | 0.188 |
| AGCGTCAA | 0.0474 |
| AGAGTCAT | -0.318 |
| ATCATCGG | -0.048 |
| ACCCCCAC | -0.246 |
| TAAGGGGA | -0.249 |
| ATAACAAT | -0.00077 |
| AAGGACCA | -0.132 |
| ATATCGCA | -0.0231 |
| AGCGGGAT | 0.0317 |
| CGTGGTCA | -0.0832 |
| ATAAAATG | 0.163 |
| ACTCTGGC | -0.0685 |
| AATATTAC | 0.121 |
| GGGCGCAC | -0.0463 |
| CTCCCTAC | -0.163 |
| CAGTATCC | 0.00046 |
| CGGATAAC | 0.0969 |
| GAACCGAC | 0.0425 |
| GGAGACTA | -0.101 |
| CTGTTGGA | 0.0495 |
| AGACAGAA | -0.0425 |
| CCGGGAGG | -0.245 |
| CGAAATGA | 0.174 |

| Sequence | PBM E-score |
| --- | --- |
| CAGAAGGC | 0.134 |
| ATTGAGTA | 0.176 |
| ATTTCATG | 0.0433 |
| GATATGGC | -0.0541 |
| CGGTATTA | 0.0515 |
| CCGCCAGC | -0.278 |
| GGAAGAGA | -0.0204 |
| GAACGTCA | -0.194 |
| ATGGTCGA | 0.00375 |
| AGGATGAC | -0.245 |
| ACACGTGT | -0.0817 |
| ACAGATGG | -0.0467 |
| ATGAGATG | 0.141 |
| TACACTAA | 0.0201 |
| ACCGCCCC | -0.144 |
| ACATCACG | -0.075 |
| CGATCAAC | -0.174 |
| GCTATATA | 0.179 |
| ACGGTCCA | -0.2 |
| CCCCGCTC | -0.343 |
| GTCTGCAC | -0.186 |
| TAGCTGAA | -0.0818 |
| AGCTTAAG | -0.0834 |
| CTTTGCTC | -0.0985 |

| Sequence | PBM E-score |
| --- | --- |
| AAAGAGCC | 0.0603 |
| ATGGCCTG | -0.159 |
| GAGTTGAC | -0.185 |
| GAGCCAAC | -0.0531 |
| CAGCGATG | -0.0761 |
| ACCGGACT | -0.168 |
| CAGTCCTA | -0.218 |
| AACTAGGC | 0.0847 |
| CGCTTCCG | 0.00427 |
| AGTTCCCG | -0.0909 |
| AGCAAGAA | -0.0915 |
| GGACACGA | -0.159 |
| ATTTCGGA | 0.136 |
| GTGTGTCA | 0.0769 |
| GGGTTTGA | 0.0868 |
| GAAACCCC | -0.237 |
| AGGGCTGC | -0.174 |
| CATCAGAA | 0.0513 |
| ACGAGTTG | -0.0653 |
| ACGCGTTA | 0.0678 |
| GTTTATCA | 0.246 |
| ATCACCGC | -0.00184 |
